{"source": "paper PMC9911399", "about": "“Two distinct binding modes provide the RNA-binding protein RbFox with extraordinary sequence specificity”", "binders": {"B1": {"name": "GGCUUCU (DNA:RNA)", "RNA": "GGGAGACCGGAAUUCAGAUUGUCCGGCUUCUUUAAAUCCCGUCGUAGCCACCA", "DNA 1": "CAATCTGAATTCCGGTCTCCC", "DNA 2": "TGGTGGCTACGACGGGATT"}, "B2": {"name": "CACAGGU (DNA:RNA)", "RNA": "B1 RNA with G25C, G26A, U28A, U29G, C30G", "DNA 1": "CAATCTGAATTCCGGTCTCCC", "DNA 2": "TGGTGGCTACGACGGGATT"}, "B3": {"name": "GUAUUCC (DNA:RNA)", "RNA": "B1 RNA with G26U, C27A, U31C", "DNA 1": "CAATCTGAATTCCGGTCTCCC", "DNA 2": "TGGTGGCTACGACGGGATT"}, "B4": {"name": "UAUAGAA (DNA:RNA)", "RNA": "GGGAGACCGGAAUUCAGAUUGUCCUAUAGAAUUAAAUCCCGUCGUAGCCACCA", "DNA 1": "CAATCTGAATTCCGGTCTCCC", "DNA 2": "TGGTGGCTACGACGGGATT"}, "B5": {"name": "UUGUGAA (DNA:RNA)", "RNA": "B4 RNA with A26U, U27G, A28U", "DNA 1": "CAATCTGAATTCCGGTCTCCC", "DNA 2": "TGGTGGCTACGACGGGATT"}, "B6": {"name": "CACGAAG (DNA:RNA)", "RNA": "B4 RNA with U25C, U27C, A28G, G29A, A31G", "DNA 1": "CAATCTGAATTCCGGTCTCCC", "DNA 2": "TGGTGGCTACGACGGGATT"}, "B7": {"name": "GACAGUA (DNA:RNA)", "RNA": "B4 RNA with U25G, U27C, A30U", "DNA 1": "CAATCTGAATTCCGGTCTCCC", "DNA 2": "TGGTGGCTACGACGGGATT"}, "B8": {"name": "AAGAGGG (DNA:RNA)", "RNA": "B4 RNA with U25A, U27G, A30G, A31G", "DNA 1": "CAATCTGAATTCCGGTCTCCC", "DNA 2": "TGGTGGCTACGACGGGATT"}, "B9": {"name": "GACCAUG (DNA:RNA)", "RNA": "B1 RNA with G26A, U28C, U29A, C30U, U31G", "DNA 1": "CAATCTGAATTCCGGTCTCCC", "DNA 2": "TGGTGGCTACGACGGGATT"}, "B10": {"name": "UCAUUAU (DNA:RNA)", "RNA": "B1 RNA with G25U, G26C, C27A, C30A", "DNA 1": "CAATCTGAATTCCGGTCTCCC", "DNA 2": "TGGTGGCTACGACGGGATT"}, "B11": {"name": "UUUCAGA (DNA:RNA)", "RNA": "B4 RNA with A26U, A28C, G29A, A30G", "DNA 1": "CAATCTGAATTCCGGTCTCCC", "DNA 2": "TGGTGGCTACGACGGGATT"}, "B12": {"name": "GGAGCGG (DNA:RNA)", "RNA": "B1 RNA with C27A, U28G, U29C, C30G, U31G", "DNA 1": "CAATCTGAATTCCGGTCTCCC", "DNA 2": "TGGTGGCTACGACGGGATT"}, "B13": {"name": "UUUCUCG (DNA:RNA)", "RNA": "B1 RNA with G25U, G26U, C27U, U28C, U31G", "DNA 1": "CAATCTGAATTCCGGTCTCCC", "DNA 2": "TGGTGGCTACGACGGGATT"}, "B14": {"name": "CUAAUAU (DNA:RNA)", "RNA": "B1 RNA with G25C, G26U, C27A, U28A, C30A", "DNA 1": "CAATCTGAATTCCGGTCTCCC", "DNA 2": "TGGTGGCTACGACGGGATT"}, "B15": {"name": "CACGGAC (DNA:RNA)", "RNA": "B4 RNA with U25C, U27C, A28G, A31C", "DNA 1": "CAATCTGAATTCCGGTCTCCC", "DNA 2": "TGGTGGCTACGACGGGATT"}, "B16": {"name": "AUUAAUC (DNA:RNA)", "RNA": "B4 RNA with U25A, A26U, G29A, A30U, A31C", "DNA 1": "CAATCTGAATTCCGGTCTCCC", "DNA 2": "TGGTGGCTACGACGGGATT"}, "B17": {"name": "GGAACGU (DNA:RNA)", "RNA": "B1 RNA with C27A, U28A, U29C, C30G", "DNA 1": "CAATCTGAATTCCGGTCTCCC", "DNA 2": "TGGTGGCTACGACGGGATT"}, "B18": {"name": "UGCAGCA (DNA:RNA)", "RNA": "B4 RNA with A26G, U27C, A30C", "DNA 1": "CAATCTGAATTCCGGTCTCCC", "DNA 2": "TGGTGGCTACGACGGGATT"}, "B19": {"name": "UGCUUCG (DNA:RNA)", "RNA": "B1 RNA with G25U, U31G", "DNA 1": "CAATCTGAATTCCGGTCTCCC", "DNA 2": "TGGTGGCTACGACGGGATT"}, "B20": {"name": "AAACGUU (DNA:RNA)", "RNA": "B4 RNA with U25A, U27A, A28C, A30U, A31U", "DNA 1": "CAATCTGAATTCCGGTCTCCC", "DNA 2": "TGGTGGCTACGACGGGATT"}, "B21": {"name": "UCGGGUC (DNA:RNA)", "RNA": "B4 RNA with A26C, U27G, A28G, A30U, A31C", "DNA 1": "CAATCTGAATTCCGGTCTCCC", "DNA 2": "TGGTGGCTACGACGGGATT"}, "B22": {"name": "UAGUUCG (DNA:RNA)", "RNA": "B1 RNA with G25U, G26A, C27G, U31G", "DNA 1": "CAATCTGAATTCCGGTCTCCC", "DNA 2": "TGGTGGCTACGACGGGATT"}, "B23": {"name": "AGGGGAC (DNA:RNA)", "RNA": "B4 RNA with U25A, A26G, U27G, A28G, A31C", "DNA 1": "CAATCTGAATTCCGGTCTCCC", "DNA 2": "TGGTGGCTACGACGGGATT"}, "B24": {"name": "GAACUGG (DNA:RNA)", "RNA": "B1 RNA with G26A, C27A, U28C, C30G, U31G", "DNA 1": "CAATCTGAATTCCGGTCTCCC", "DNA 2": "TGGTGGCTACGACGGGATT"}, "B25": {"name": "UGGUCUC (DNA:RNA)", "RNA": "B1 RNA with G25U, C27G, U29C, C30U, U31C", "DNA 1": "CAATCTGAATTCCGGTCTCCC", "DNA 2": "TGGTGGCTACGACGGGATT"}, "B26": {"name": "CCUCGCG (DNA:RNA)", "RNA": "B4 RNA with U25C, A26C, A28C, A30C, A31G", "DNA 1": "CAATCTGAATTCCGGTCTCCC", "DNA 2": "TGGTGGCTACGACGGGATT"}, "B27": {"name": "GUGGUAU (DNA:RNA)", "RNA": "B1 RNA with G26U, C27G, U28G, C30A", "DNA 1": "CAATCTGAATTCCGGTCTCCC", "DNA 2": "TGGTGGCTACGACGGGATT"}, "B28": {"name": "UGACGCA (DNA:RNA)", "RNA": "B4 RNA with A26G, U27A, A28C, A30C", "DNA 1": "CAATCTGAATTCCGGTCTCCC", "DNA 2": "TGGTGGCTACGACGGGATT"}, "B29": {"name": "CCUUAAG (DNA:RNA)", "RNA": "B4 RNA with U25C, A26C, A28U, G29A, A31G", "DNA 1": "CAATCTGAATTCCGGTCTCCC", "DNA 2": "TGGTGGCTACGACGGGATT"}, "B30": {"name": "UGUUCCU (DNA:RNA)", "RNA": "B1 RNA with G25U, C27U, U29C", "DNA 1": "CAATCTGAATTCCGGTCTCCC", "DNA 2": "TGGTGGCTACGACGGGATT"}, "B31": {"name": "GGUACCA (DNA:RNA)", "RNA": "B1 RNA with C27U, U28A, U29C, U31A", "DNA 1": "CAATCTGAATTCCGGTCTCCC", "DNA 2": "TGGTGGCTACGACGGGATT"}}, "note": "Changes are numbered by the printed parent chain; changes in the protein carry UniProt numbers. The list shows a part of the results."}
{"biological_target": "T1, RBFOX1 RRM RbFoxmut (Fox-RRM*) (Homo sapiens, UniProt Q9NWB1 109-208, R118D;E147R;N151S;E152T)", "T1 sequence": "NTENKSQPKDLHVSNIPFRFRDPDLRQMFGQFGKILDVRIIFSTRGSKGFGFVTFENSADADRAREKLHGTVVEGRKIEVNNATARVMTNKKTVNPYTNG", "assay": "EMSA; HiTS-Eq, 1 nM pool, 10 min; buffer printed only for the single-RNA assays: 10 mM Tris pH 7.5, 150 mM NaCl, 3.4 mM EDTA, 0.001% NP-40, 30 C", "conditions": "tags: His6 N-terminal (pET28a); label: 5' 32P", "method_in_brief": "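Purified RbFox RRM, wild type or mutant, was incubated for 10 min in 50 µL with 1 nM of a 5′-radiolabelled RNA pool carrying 7 randomized nucleotides, whose flanks were annealed to DNA oligonucleotides, over a series of increasing protein concentrations. Unbound RNA was resolved on 8% native PAGE, cut out, reverse-transcribed, barcoded by PCR and sequenced on an Illumina HiSeq 2500. Relative association constants were derived from changes in read counts for each RNA species versus the control reaction and normalised to the cognate motif.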"}
{"binder": "B1", "binding signal": "0.129 KA relative to UGCAUGU"}
{"binder": "B2", "binding signal": "0.106 KA relative to UGCAUGU"}
{"binder": "B3", "binding signal": "0.0717 KA relative to UGCAUGU"}
{"binder": "B4", "binding signal": "0.0862 KA relative to UGCAUGU"}
{"binder": "B5", "binding signal": "0.133 KA relative to UGCAUGU"}
{"binder": "B6", "binding signal": "0.124 KA relative to UGCAUGU"}
{"binder": "B7", "binding signal": "0.0962 KA relative to UGCAUGU"}
{"binder": "B8", "binding signal": "0.0664 KA relative to UGCAUGU"}
{"binder": "B9", "binding signal": "0.0827 KA relative to UGCAUGU"}
{"binder": "B10", "binding signal": "0.121 KA relative to UGCAUGU"}
{"binder": "B11", "binding signal": "0.0858 KA relative to UGCAUGU"}
{"binder": "B12", "binding signal": "0.0766 KA relative to UGCAUGU"}
{"binder": "B13", "binding signal": "0.0926 KA relative to UGCAUGU"}
{"binder": "B14", "binding signal": "0.1 KA relative to UGCAUGU"}
{"binder": "B15", "binding signal": "0.0575 KA relative to UGCAUGU"}
{"binder": "B16", "binding signal": "0.0837 KA relative to UGCAUGU"}
{"binder": "B17", "binding signal": "0.415 KA relative to UGCAUGU"}
{"binder": "B18", "binding signal": "0.189 KA relative to UGCAUGU"}
{"binder": "B19", "binding signal": "0.213 KA relative to UGCAUGU"}
{"binder": "B20", "binding signal": "0.0775 KA relative to UGCAUGU"}
{"binder": "B21", "binding signal": "0.149 KA relative to UGCAUGU"}
{"binder": "B22", "binding signal": "0.173 KA relative to UGCAUGU"}
{"binder": "B23", "binding signal": "0.0716 KA relative to UGCAUGU"}
{"binder": "B24", "binding signal": "0.0601 KA relative to UGCAUGU"}
{"binder": "B25", "binding signal": "0.137 KA relative to UGCAUGU"}
{"binder": "B26", "binding signal": "0.154 KA relative to UGCAUGU"}
{"binder": "B27", "binding signal": "0.189 KA relative to UGCAUGU"}
{"binder": "B28", "binding signal": "0.152 KA relative to UGCAUGU"}
{"binder": "B29", "binding signal": "0.126 KA relative to UGCAUGU"}
{"binder": "B30", "binding signal": "0.0953 KA relative to UGCAUGU"}
{"binder": "B31", "binding signal": "0.0922 KA relative to UGCAUGU"}
